Test results: the supplement of paper PMC3334620
Over roughly 33,000 sequences, “E-score (-0.5 to 0.5)” has its median near -0.036; the highest 2% begin near 0.37. Some of the results follow.

target: T1, Yer064c (UniProt P40041); test: PBM E-score (8-mer binding enrichment) (E-score (-0.5 to 0.5)); higher = stronger / more preferred TF binding; most listed sequences are background and not binding sites; settings: protein concentration: 200 nM; construct: GST-full length
T1 sequence: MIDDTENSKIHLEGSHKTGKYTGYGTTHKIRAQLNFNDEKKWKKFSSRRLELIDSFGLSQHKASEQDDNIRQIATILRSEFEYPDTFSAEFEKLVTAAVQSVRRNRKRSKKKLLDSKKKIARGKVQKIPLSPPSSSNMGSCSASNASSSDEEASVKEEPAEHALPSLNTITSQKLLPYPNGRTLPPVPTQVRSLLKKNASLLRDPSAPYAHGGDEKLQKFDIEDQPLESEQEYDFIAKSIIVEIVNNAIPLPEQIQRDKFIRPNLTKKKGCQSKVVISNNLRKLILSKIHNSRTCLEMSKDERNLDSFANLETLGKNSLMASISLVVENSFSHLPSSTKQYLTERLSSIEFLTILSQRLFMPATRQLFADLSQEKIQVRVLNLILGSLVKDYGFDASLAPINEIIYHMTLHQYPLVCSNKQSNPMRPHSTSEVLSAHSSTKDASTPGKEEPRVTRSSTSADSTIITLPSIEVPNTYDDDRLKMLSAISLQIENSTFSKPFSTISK
Method: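 Universal 'all 10-mer' protein binding microarrays (Agilent AMADID 015681) probed with GST-tagged S. cerevisiae TFs (full-length or DBD) made by in vitro transcription/translation (PURExpress), about 100-200 nM. Bound TF was detected with fluorescent anti-GST. Each ungapped 8-mer (which stands for itself and its reverse complement) is scored by the PBM enrichment score (E-score), a modified Wilcoxon-Mann-Whitney statistic from -0.5 to +0.5, computed with the Universal PBM Analysis Suite. Scale: above 0.35 generally sequence-specific binding.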

| Sequence | PBM E-score |
| --- | --- |
| GCCCCTGA | -0.0434 |
| AACTTGCA | -0.132 |
| AGCGTGGG | -0.262 |
| AGATTATG | 0.125 |
| AATTAGCC | -0.034 |
| CACATGCG | 0.045 |
| ACATCATA | 0.107 |
| CCATCCCC | -0.243 |
| TCGTCACA | -0.0543 |
| AGAAAAAC | -0.162 |
| CTCTTAGA | 0.0953 |
| ATTACGAG | 0.121 |
| CCGGTCCC | -0.291 |
| TACCAAAA | -0.00281 |
| CATTCTTC | -0.0285 |
| GTAACGAC | 0.00696 |
| ATGGGCTG | -0.0763 |
| AGATACGA | 0.0569 |
| CACTAGCA | -0.121 |
| CAGGGACG | -0.169 |
| TCGGCCAA | -0.185 |
| CGAATGGC | -0.0891 |
| TAGCTCCA | -0.0907 |
| AGTGGCGG | -0.0561 |
| CGAACCGA | -0.0881 |

| Sequence | PBM E-score |
| --- | --- |
| TCGTGCCA | -0.0996 |
| GGCCACGA | -0.03 |
| CCCACTGC | -0.0844 |
| CAGCCCAA | -0.0932 |
| CCACTTTC | -0.201 |
| AATCACCA | 0.374 |
| AACTAAAT | 0.208 |
| ACAGGCCC | -0.39 |
| GTGGAGGA | -0.0633 |
| CTGACTGC | 0.348 |
| AGCTGGTA | -0.173 |
| CTCAGTCA | 0.436 |
| GGAAATTA | -0.0635 |
| GACACGCC | -0.174 |
| ATTAGAGC | 0.034 |
| ACATCGAT | 0.00682 |
| TACTCAGA | 0.241 |
| ACTAAGGA | 0.128 |
| CGGATAGC | -0.168 |
| TCGCCCGA | -0.0643 |
| GATTTGAA | 0.121 |
| CCGTCAAA | -0.179 |
| GAGAGCCC | -0.232 |
| ACAGTCTG | -0.0791 |
| GAGCCAGA | 0.113 |

| Sequence | PBM E-score |
| --- | --- |
| AACTCGCT | 0.068 |
| CAAATTTC | 0.0245 |
| TACGATAA | 0.0301 |
| AGCTCGCA | -0.0722 |
| GACCACTC | -0.0747 |
| AGCATCAT | -0.118 |
| ACATACCG | -0.0792 |
| CTCGCGAA | -0.116 |
| AAAGGAAG | -0.0963 |
| GCCTGATA | -0.0848 |
| GTACCTCA | 0.118 |
| CTAGGCAC | -0.0402 |
| CCGAATTC | -0.141 |
| GACATGAC | 0.33 |
| GGTAATTA | 0.0662 |
| CGACGGCA | -0.251 |
| ATCACGGG | 0.0804 |
| AAGCTCTA | 0.0199 |
| GGAAGTAA | -0.12 |
| CGCTGGAA | -0.192 |
| CATTCCCC | -0.116 |
| ACCATGTC | 0.0414 |
| CGGTTTTA | -0.0271 |
| CCTAAGCA | -0.00923 |
| GCGTGACA | -0.102 |

| Sequence | PBM E-score |
| --- | --- |
| CTGCTATA | -0.0966 |
| GAAATGCA | 0.00611 |
| GCGCTGCC | -0.264 |
| CAATCGAG | 0.0155 |
| CAAAAGGG | -0.0394 |
| TCTGCTCA | -0.0594 |
| GAAAAGAC | 0.286 |
| CGCCTTAC | -0.129 |
| GACAAATC | 0.00373 |
| CTAAGACA | 0.0565 |
| AGGCCCTG | -0.199 |
| GAAAAAAA | -0.124 |
| CCGGTTTC | -0.127 |
| CGCGCTGA | -0.011 |
| AGCAGTCC | -0.0176 |
| GACATTCA | 0.178 |
| GTACACGA | -0.00922 |
| CCGTATGA | 0.281 |
| TTACTGAA | 0.0197 |
| ATAGATAC | -0.173 |
| GTCATAAC | 0.326 |
| AGGCCAGA | -0.398 |
| CCGGTTTA | -0.155 |
| CCACCGGG | -0.218 |
| CATTTAAA | 0.206 |

| Sequence | PBM E-score |
| --- | --- |
| GAATCATA | 0.464 |
| AAAAGTGC | 0.0431 |
| CATCACTA | 0.0474 |
| CTAAACAG | 0.0256 |
| CGGTGACA | -0.069 |
| AACATGTG | 0.137 |
| CATAGCAC | 8e-05 |
| CCCCGACG | -0.136 |
| AACCCGCG | -0.0643 |
| CTAAAGAG | 0.142 |
| CTAGACGC | -0.172 |
| CGTTACCA | -0.116 |
| ATTACTTA | 0.129 |
| CTTATTTC | 0.0896 |
| CCGTACCA | -0.0747 |
| GGCAGGAC | -0.196 |
| GAACGACA | -0.118 |
| GCCTCCCA | -0.292 |
| ACGTTGCT | -0.105 |
| CACTGTAC | -0.114 |
| CATAATGC | -0.095 |
| AGTTTTTG | 0.103 |
| GATTTACA | 0.114 |
| GCACCGAC | -0.0732 |
| GAAGCTGA | -0.00743 |

| Sequence | PBM E-score |
| --- | --- |
| CACTACGA | 0.0996 |
| GGATTAGA | -0.122 |
| AGATAACG | 0.0367 |
| TCGATTCA | 0.256 |
| CCTCATCA | -0.114 |
| ATCTCTCG | -0.044 |
| GTTACAGA | -0.0621 |
| ATACGAAT | -0.0243 |
| CCCACGCC | -0.138 |
| ACCGTTAC | 0.0779 |
| CACTCTAA | 0.149 |
| GGGAATTA | -0.0956 |
| GACGCCTC | -0.216 |
| CATTATAG | 0.174 |
| GCAGTTAC | -0.0144 |
| GTAAAGAA | -0.0534 |
| CGAATGAC | 0.253 |
| AAGAAGGC | -0.313 |
| CGTAGCTC | -0.149 |
| CATTTAAG | 0.0396 |
| CACCCATG | 0.0859 |
| AAAGGCAA | 0.0611 |
| ATTCGCAA | -0.0124 |
| CACTACTA | 0.0937 |
| GGGGTCTA | -0.0717 |

| Sequence | PBM E-score |
| --- | --- |
| GTATCCCA | -0.174 |
| AGGTGCAC | -0.143 |
| AAGTTTAT | 0.0447 |
| GCATAGCA | -0.144 |
| GACCTTGC | -0.127 |
| ACAGAAAA | 0.237 |
| AGATCATA | 0.15 |
| CCGCAAGA | -0.189 |
| AAACTCCT | -0.0312 |
| AATATAGA | 0.0851 |
| AGTGCGTG | 0.145 |
| GCATCGCC | -0.301 |
| ATGAGACA | 0.341 |
| GACCGAAC | -0.059 |
| GGCAAAGA | -0.0316 |
| AATGGTTC | 0.232 |
| GAGTGGCC | -0.216 |
| ACACGTCG | -0.167 |
| CAAAGCTG | -0.0364 |
| AACCGAGT | 0.17 |
| AAGGTTAT | -0.0372 |
| AACTGTTA | 0.0274 |
